Read counts are not given, so values of variants with three or more changes are uncertain.
B1: CPEB3 Ribozyme (parent)
chain: UAACAGGGGGCCACAGCAGAAGCGUUCACGUCGCAGCCCCUGUCAGAUUCUGGUGAAUCUGCGAAUUCUGCUGUAUAUCUC

Variants of: B1
Assay: self-cleavage, relative activity (ratio to wild type); higher = more cleavage; in vitro, sequencing
Method in brief: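 Relative activity compares each variant's cleaved/total read fraction with that of the unmutated ribozyme. To get these fractions, barcoded CPEB3 ribozyme libraries from rounds of error-prone PCR were transcribed with T7 RNA polymerase for 5 hours at 37°C and then given 15 min of DNase I treatment before EDTA was added. The RNAs were reverse transcribed with template switching and sequenced on Illumina, and DNA sequencing linked barcodes to variants. A minimum of 5 reads applied, and three batches were averaged.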
G30C U41A U78C U80C gave a self-cleavage of 0.23.
Work on G30C U41C G61A yielded a self-cleavage of 0.12.
G30C U43A U48A U80A gave a self-cleavage of 0.18.
With G30C U51A U80C the self-cleavage was 0.12.
In the case of G30C U51C A64G U74C, the self-cleavage is reported as 0.12.
Work on G30C U51C U69A yielded a self-cleavage of 0.17.
G30C U58C A64G gave a self-cleavage of 0.21.
Work on G30C U58C A65G U78C yielded a self-cleavage of 0.03.
In the case of G30C U60C U74C, the self-cleavage is reported as 0.2.
With G30C U66C C79U the self-cleavage was 0.15.
G30C U66C U67C gave a self-cleavage of 0.43.
Variant G30U A35C U41G U72C has a self-cleavage of 0.18.
For G30U A35G A56G A65G U80C, the self-cleavage was 0.13.
G30U A35G U54A G55C gave a self-cleavage of 0.19.
G30U A35G U60A U67A gave a self-cleavage of 0.07.
With G30U A35U U54C G63A the self-cleavage was 0.07.
Variant G30U A35U U60A U72C has a self-cleavage of 0.06.
G30U A45C A47U showed a self-cleavage of 0.33.
For G30U A45G C68A U72C A75G U80C, the self-cleavage was 0.14.
G30U A45G U69C gave a self-cleavage of 0.07.
With G30U A47G U69A G70A U76A U80C the self-cleavage was 0.14.
Variant G30U A56G U60C has a self-cleavage of 0.54.
Variant G30U C34U U41A A77G has a self-cleavage of 0.08.
For G30U C40U U43C U60A U66C, the self-cleavage was 0.38.
In the case of G30U G33U A35U U43A U49C U60A, the self-cleavage is reported as 0.1.
For G30U G53A U60C U66C A75U, the self-cleavage was 0.08.
In the case of G30U G53C A64U, the self-cleavage is reported as 0.18.
For G30U G61A A77U, the self-cleavage was 0.08.
With G30U U31C U58C the self-cleavage was 0.35.
G30U U41A C44A U60A U66C showed a self-cleavage of 0.14.
G30U U41A U58C gave a self-cleavage of 0.07.
Work on G30U U41C A45U yielded a self-cleavage of 0.14.
G30U U41C A56G A77G U80G showed a self-cleavage of 0.09.
With G30U U41C A77C the self-cleavage was 0.14.
Work on G30U U41C U43A U49A U58A U67C U80C yielded a self-cleavage of 0.07.
Work on G30U U41C U43C A77U yielded a self-cleavage of 0.19.
Work on G30U U41C U43C U66C U69C yielded a self-cleavage of 0.06.
For G30U U41C U48C, the self-cleavage was 0.36.
For G30U U41C U54G A64U, the self-cleavage was 0.14.
G30U U41C U54G A64U A77U gave a self-cleavage of 0.07.
For G30U U41C U54G A64U G70U, the self-cleavage was 0.11.
G30U U41C U58C U69C U78C showed a self-cleavage of 0.29.
Work on G30U U41C U60A U72C yielded a self-cleavage of 0.13.
Work on G30U U41C U72A U78A yielded a self-cleavage of 0.11.
Work on G30U U41C U80A yielded a self-cleavage of 0.07.
G30U U43C A45G U54C U58C U69C showed a self-cleavage of 0.04.
Variant G30U U43C A47G has a self-cleavage of 0.14.
Work on G30U U51A C59A yielded a self-cleavage of 0.17.
G30U U51G A65G U66C gave a self-cleavage of 0.07.
For G30U U54C A57G U66C, the self-cleavage was 0.13.
G30U U66C U80C C81A showed a self-cleavage of 0.11.
Work on G30U U69C U80C yielded a self-cleavage of 0.07.
In the case of U31A A35C U43C, the self-cleavage is reported as 0.14.
Work on U31A A35G C38U U58G C68U U74A A75G yielded a self-cleavage of 0.38.
For U31A A35G G42A U48C U51C U74A, the self-cleavage was 0.16.
With U31A A35G U49C the self-cleavage was 0.43.
Variant U31A A35G U54C has a self-cleavage of 1.23.
In the case of U31A A35G U54G U67C, the self-cleavage is reported as 0.57.
Work on U31A A35G U60G yielded a self-cleavage of 0.36.
For U31A A35G U66A U69C, the self-cleavage was 0.32.
Variant U31A A35G U72C has a self-cleavage of 1.24.
Variant U31A A35G U78A has a self-cleavage of 1.24.
In the case of U31A A35U A45G A65U U66A U72C, the self-cleavage is reported as 0.07.
With U31A A35U A45G U69A U72C the self-cleavage was 0.12.
Variant U31A A35U A75C has a self-cleavage of 0.2.
Variant U31A A35U C68U U69C U72C U74C has a self-cleavage of 0.12.
With U31A A35U U41A A45G the self-cleavage was 0.31.
For U31A A35U U41A G63A C71G, the self-cleavage was 0.06.
U31A A35U U43C gave a self-cleavage of 0.27.
In the case of U31A A35U U49C U51A A65G, the self-cleavage is reported as 0.01.
With U31A A35U U51A U69G the self-cleavage was 0.09.
For U31A A35U U58C U69G, the self-cleavage was 0.12.
Variant U31A A35U U58G has a self-cleavage of 0.13.
For U31A A35U U69A, the self-cleavage was 0.19.
Work on U31A A45C U54G U80C yielded a self-cleavage of 0.11.
With U31A A45G A64G the self-cleavage was 0.23.
Variant U31A A45G A75G U76A has a self-cleavage of 0.31.
Work on U31A A45G U48C U60C U69A yielded a self-cleavage of 0.2.
In the case of U31A A45G U49A U66C A77G, the self-cleavage is reported as 0.18.
In the case of U31A A45G U51C, the self-cleavage is reported as 0.15.
For U31A A45G U54A U67C U69A U72C, the self-cleavage was 0.22.
U31A A45G U58A U72C U74A A75G gave a self-cleavage of 0.2.
In the case of U31A A45G U60A, the self-cleavage is reported as 0.26.
For U31A A45G U76A, the self-cleavage was 0.32.
Work on U31A A45G U78C C81U yielded a self-cleavage of 0.14.
Work on U31A A45G U78G yielded a self-cleavage of 0.32.
U31A A45U A57G U80C showed a self-cleavage of 0.1.
Variant U31A A45U C50A U67C U72C has a self-cleavage of 0.07.
Work on U31A A45U C81G yielded a self-cleavage of 0.25.
In the case of U31A A45U U54C, the self-cleavage is reported as 0.17.
U31A A45U U54C G61U C62U A77C showed a self-cleavage of 0.08.
For U31A A45U U58A, the self-cleavage was 0.2.
Variant U31A A45U U66C has a self-cleavage of 0.09.
Variant U31A A47C U69C has a self-cleavage of 0.06.
Work on U31A A47G A64G A75G yielded a self-cleavage of 0.22.
In the case of U31A A47G C62G U80C, the self-cleavage is reported as 0.22.
U31A A47G U48C C59U U72C showed a self-cleavage of 0.08.
In the case of U31A A47G U54C, the self-cleavage is reported as 0.34.
In the case of U31A A47G U67C, the self-cleavage is reported as 0.24.
For U31A A47U U54C A56G U60A U78A, the self-cleavage was 0.04.
U31A A56G A64G gave a self-cleavage of 0.33.
U31A A56G C59A gave a self-cleavage of 0.38.
Variant U31A A56G U58A has a self-cleavage of 0.1.
For U31A A56G U67C, the self-cleavage was 0.1.
Work on U31A A56G U72A yielded a self-cleavage of 0.51.
U31A A56U U60C gave a self-cleavage of 0.13.
With U31A A57G A65G the self-cleavage was 0.41.
In the case of U31A A57G A65U U69C, the self-cleavage is reported as 0.16.
Variant U31A A57G C71U has a self-cleavage of 0.35.
For U31A A57U U69C, the self-cleavage was 0.09.
Work on U31A A64G U74A yielded a self-cleavage of 0.54.
With U31A A64U U67C U72A U80A the self-cleavage was 0.22.
U31A A75G U78C gave a self-cleavage of 0.27.
U31A C32A U60A A77U gave a self-cleavage of 0.09.
Work on U31A C32U A45G U51C yielded a self-cleavage of 0.06.
With U31A C34G U49A U51A the self-cleavage was 0.07.
U31A C34U A35G G42A U51C U58A showed a self-cleavage of 0.04.
For U31A C34U A56G, the self-cleavage was 0.1.
Variant U31A C34U A56U has a self-cleavage of 0.2.
With U31A C34U U41C U72A the self-cleavage was 0.14.
With U31A C34U U54C the self-cleavage was 0.35.
Work on U31A C37U U41A G52U U58C U69G yielded a self-cleavage of 0.08.
For U31A C38G C68U C71U, the self-cleavage was 0.07.
U31A C38U U60A U66A gave a self-cleavage of 0.17.
For U31A C39A U41C U49C U54A, the self-cleavage was 0.17.
U31A C39A U74C showed a self-cleavage of 0.32.
U31A C40U U48C U54C C62A showed a self-cleavage of 0.06.
Variant U31A C40U U67C has a self-cleavage of 0.13.
U31A C44A U51A showed a self-cleavage of 0.13.
With U31A C44G U67C the self-cleavage was 0.05.
With U31A C68U U72C the self-cleavage was 0.46.
Work on U31A C71A U72C U78C yielded a self-cleavage of 0.13.
U31A G33A A65G U72A U78C gave a self-cleavage of 0.05.
For U31A G33A C59U, the self-cleavage was 0.12.
For U31A G33A U58C A64G U69C, the self-cleavage was 0.09.
In the case of U31A G33U U48C U69C, the self-cleavage is reported as 0.08.
U31A G36A U43C U72C showed a self-cleavage of 0.13.
Work on U31A G36A U76A yielded a self-cleavage of 0.35.
Variant U31A G42A A45G A47G has a self-cleavage of 0.21.
Work on U31A G46U U54C U58A yielded a self-cleavage of 0.14.
For U31A G52A U54C, the self-cleavage was 0.66.
U31A G52A U72C gave a self-cleavage of 0.54.
U31A G52U U78C showed a self-cleavage of 0.18.
In the case of U31A G55A A75C, the self-cleavage is reported as 0.5.
With U31A G61A A65G the self-cleavage was 0.22.
With U31A G61U U80C the self-cleavage was 0.37.
U31A U41A U43A U51A gave a self-cleavage of 0.34.
Variant U31A U41A U43A U74A has a self-cleavage of 0.17.
Work on U31A U41A U51A yielded a self-cleavage of 0.19.
In the case of U31A U41A U54C A77G, the self-cleavage is reported as 0.43.
For U31A U41C A65G, the self-cleavage was 0.34.
With U31A U41C C68A the self-cleavage was 0.19.
Variant U31A U41C G73A has a self-cleavage of 0.83.
Variant U31A U41C U43A U60C A75G has a self-cleavage of 0.09.
U31A U41C U43C A56G gave a self-cleavage of 0.16.
Work on U31A U41C U48C U60A U76C yielded a self-cleavage of 0.12.
With U31A U41C U60C A64G the self-cleavage was 0.29.
For U31A U41C U60C U66C, the self-cleavage was 0.17.
Work on U31A U41C U78C yielded a self-cleavage of 0.35.
For U31A U43A A47G U51C U58G U60C, the self-cleavage was 0.12.
Work on U31A U43A U54C U67C A75G yielded a self-cleavage of 0.19.
In the case of U31A U43C A56U, the self-cleavage is reported as 0.09.
Variant U31A U43C A56U U74C has a self-cleavage of 0.13.
U31A U43C A75G gave a self-cleavage of 0.13.
U31A U43C U51A U72A A77U gave a self-cleavage of 0.11.
U31A U43C U58A U69A U76C showed a self-cleavage of 0.1.
In the case of U31A U43C U74C U78A, the self-cleavage is reported as 0.37.

Source: the RNAGym collection of RNA variant scans (doi:10.1093/nar/gkz1192)
